# Source: the supplement of paper PMC8728848
# Some of the results follow.
# Tests used:
# Assay in all cases: glycan array binding signal (z-score within array); higher = stronger binding
# Conditions in all cases: glycan notation: IUPAC condensed, linker removed
# [1] = molecular target: Fuc(a1-2)[Gal(a1-4)]Gal(b1-4)GlcNAc
# Procedure, shortened: (§1)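 The binding signal is a Z-score computed within each array. Data were drawn from 3228 arrays in the Consortium for Functional Glycomics database, restricted to those with a known protein sequence. Scores were averaged over arrays of the same protein sequence at different concentrations or buffers, and over linkers, and negative values can be taken as non-binding.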
# [2] = molecular target: Fuc(a1-2)[GalNAc(a1-3)]Gal
# Procedure, shortened: as §1
# [3] = molecular target: Fuc(a1-2)[GalNAc(a1-3)]Gal(b1-3)GalNAc(a1-3)[Fuc(a1-2)]Gal(b1-4)GlcNAc
# Procedure, shortened: as §1
# [4] = molecular target: Fuc(a1-2)[GalNAc(a1-3)]Gal(b1-3)GalNAc(b1-3)Gal(a1-4)Gal(b1-4)Glc
# Procedure, shortened: as §1
# [5] = molecular target: Fuc(a1-2)[GalNAc(a1-3)]Gal(b1-3)GlcNAc
# Procedure, shortened: as §1
# [6] = molecular target: Fuc(a1-2)[GalNAc(a1-3)]Gal(b1-3)GlcNAc(b1-2)Man(a1-3)[Fuc(a1-2)[GalNAc(a1-3)]Gal(b1-3)GlcNAc(b1-2)Man(a1-6)]Man(b1-4)GlcNAc(b1-4)GlcNAc
# Procedure, shortened: as §1
# [7] = molecular target: Fuc(a1-2)[GalNAc(a1-3)]Gal(b1-3)GlcNAc(b1-2)Man(a1-3)[Fuc(a1-2)[GalNAc(a1-3)]Gal(b1-3)GlcNAc(b1-2)Man(a1-6)]Man(b1-4)GlcNAc(b1-4)[Fuc(a1-6)]GlcNAc
# Procedure, shortened: as §1
# [8] = molecular target: Fuc(a1-2)[GalNAc(a1-3)]Gal(b1-3)GlcNAc(b1-3)GalNAc
# Procedure, shortened: as §1
# [9] = molecular target: Fuc(a1-2)[GalNAc(a1-3)]Gal(b1-3)GlcNAc(b1-6)GalNAc
# Procedure, shortened: as §1
# [10] = molecular target: Fuc(a1-2)[GalNAc(a1-3)]Gal(b1-4)Glc
# Procedure, shortened: as §1
# [11] = molecular target: Fuc(a1-2)[GalNAc(a1-3)]Gal(b1-4)GlcNAc
# Procedure, shortened: as §1
# [12] = molecular target: Fuc(a1-2)[GalNAc(a1-3)]Gal(b1-4)GlcNAc(b1-2)Man
# Procedure, shortened: as §1
# [13] = molecular target: Fuc(a1-2)[GalNAc(a1-3)]Gal(b1-4)GlcNAc(b1-2)Man(a1-3)[Fuc(a1-2)[GalNAc(a1-3)]Gal(b1-4)GlcNAc(b1-2)Man(a1-6)]Man(b1-4)GlcNAc(b1-4)GlcNAc
# Procedure, shortened: as §1
# [14] = molecular target: Fuc(a1-2)[GalNAc(a1-3)]Gal(b1-4)GlcNAc(b1-2)Man(a1-3)[Fuc(a1-2)[GalNAc(a1-3)]Gal(b1-4)GlcNAc(b1-2)Man(a1-6)]Man(b1-4)GlcNAc(b1-4)[Fuc(a1-6)]GlcNAc
# Procedure, shortened: as §1
# [15] = molecular target: Fuc(a1-2)[GalNAc(a1-3)]Gal(b1-4)GlcNAc(b1-3)Gal(b1-4)GlcNAc
# Procedure, shortened: as §1
# [16] = molecular target: Fuc(a1-2)[GalNAc(a1-3)]Gal(b1-4)GlcNAc(b1-3)Gal(b1-4)GlcNAc(b1-3)Gal(b1-4)GlcNAc
# Procedure, shortened: as §1
# [17] = molecular target: Fuc(a1-2)[GalNAc(a1-3)]Gal(b1-4)GlcNAc(b1-3)GalNAc
# Procedure, shortened: as §1
# [18] = molecular target: Fuc(a1-2)[GalNAc(a1-3)]Gal(b1-4)GlcNAc(b1-3)[Fuc(a1-2)[GalNAc(a1-3)]Gal(b1-4)GlcNAc(b1-6)]GalNAc
# Procedure, shortened: as §1
# [19] = molecular target: Fuc(a1-2)[GalNAc(a1-3)]Gal(b1-4)GlcNAc(b1-6)GalNAc
# Procedure, shortened: as §1
# [20] = molecular target: Fuc(a1-2)[GalNAc(a1-3)]Gal(b1-4)[Fuc(a1-3)]GlcNAc
# Procedure, shortened: as §1
# [21] = molecular target: Fuc(a1-2)[GalNAc(a1-3)]Gal(b1-4)[Fuc(a1-3)]GlcNAc(b1-3)GalNAc
# Procedure, shortened: as §1
# [22] = molecular target: Fuc(a1-2)[GalNAc(a1-4)]Gal(b1-4)GlcNAc
# Procedure, shortened: as §1
# [23] = molecular target: Fuc(a1-2)[GalNAc(b1-3)]Gal
# Procedure, shortened: as §1
# Fuc(a1-3)GlcNAc = molecular target: Fuc(a1-3)GlcNAc
# Procedure, shortened: as §1
# [24] = molecular target: Fuc(a1-3)[Gal(b1-4)]Glc6S
# Procedure, shortened: as §1
# [25] = molecular target: Fuc(a1-3)[Gal(b1-4)]GlcNAc
# Procedure, shortened: as §1
# [26] = molecular target: Fuc(a1-3)[Gal(b1-4)]GlcNAc(b1-2)Man
# Procedure, shortened: as §1
# [27] = molecular target: Fuc(a1-3)[Gal(b1-4)]GlcNAc(b1-2)Man(a1-3)[Fuc(a1-3)[Gal(b1-4)]GlcNAc(b1-2)Man(a1-6)]Man(b1-4)GlcNAc(b1-4)GlcNAc
# Procedure, shortened: as §1
# [28] = molecular target: Fuc(a1-3)[Gal(b1-4)]GlcNAc(b1-2)Man(a1-3)[Fuc(a1-3)[Gal(b1-4)]GlcNAc(b1-2)Man(a1-6)]Man(b1-4)GlcNAc(b1-4)[Fuc(a1-6)]GlcNAc
# Procedure, shortened: as §1
# [29] = molecular target: Fuc(a1-3)[Gal(b1-4)]GlcNAc(b1-3)Gal(b1-3)[Fuc(a1-4)]GlcNAc
# Procedure, shortened: as §1
# [30] = molecular target: Fuc(a1-3)[Gal(b1-4)]GlcNAc(b1-3)Gal(b1-4)[Fuc(a1-3)]GlcNAc
# Procedure, shortened: as §1
# [31] = molecular target: Fuc(a1-3)[Gal(b1-4)]GlcNAc(b1-3)Gal(b1-4)[Fuc(a1-3)]GlcNAc(b1-3)Gal(b1-4)[Fuc(a1-3)]GlcNAc
# Procedure, shortened: as §1
# [32] = molecular target: Fuc(a1-3)[Gal(b1-4)]GlcNAc(b1-3)GalNAc
# Procedure, shortened: as §1
# [33] = molecular target: Fuc(a1-3)[Gal(b1-4)]GlcNAc(b1-6)GalNAc
# Procedure, shortened: as §1
# [34] = molecular target: Fuc(a1-3)[Gal(b1-4)]GlcNAc(b1-6)[Gal(b1-3)GlcNAc(b1-3)]Gal(b1-4)Glc
# Procedure, shortened: as §1
# [35] = molecular target: Fuc(a1-3)[Gal(b1-4)]GlcNAc6S
# Procedure, shortened: as §1
# [36] = molecular target: Fuc(a1-3)[Gal3S(b1-4)]Glc
# Procedure, shortened: as §1
# [37] = molecular target: Fuc(a1-3)[Gal3S(b1-4)]GlcNAc
# Procedure, shortened: as §1
binder,measurement,setting,value
FimD (Bordetella pertussis) (protein) MPARVISFCGAALAVWAGLAVQPAMAVDPPVDCGRALGLHFWSSASLISDQTPDGTLIGKPVVGRSLLSKSCKVPDDIKEDLSDNHDGEPVDIVLELGSNYKIRPQSYGHPGIVVDLPFGSTEETGIAIYIDFGSSPMQKVGERQWLYPQKGEVLFDVLTINGDNAEVRYQAIKVGPLKRPRKLVLSQFPNLFTYKWVFMRGTSQERVLAQGTIDTDVATSTIDLKTCRYTSQTVSLPIIQRSALTGVGTTLGMTDFQMPFWCYGWPKVSVYMSATKTQTGVDGVALPATGQAAGMASGVGVQLINGKTQQPVKLGLQGKIALPEAQQTESATFSLPMKAQYYQTSTSTSAGKLSVTYAVTLNYD,glycan array binding signal (z-score),[1],-0.259
same,glycan array binding signal (z-score),[2],-0.243
same,glycan array binding signal (z-score),[3],-0.445
same,glycan array binding signal (z-score),[4],-0.248
same,glycan array binding signal (z-score),[5],-0.266
same,glycan array binding signal (z-score),[6],0.083
same,glycan array binding signal (z-score),[7],-0.129
same,glycan array binding signal (z-score),[8],0.047
same,glycan array binding signal (z-score),[9],-0.285
same,glycan array binding signal (z-score),[10],-0.215
same,glycan array binding signal (z-score),[11],-0.489
same,glycan array binding signal (z-score),[12],-0.249
same,glycan array binding signal (z-score),[13],0.77
same,glycan array binding signal (z-score),[14],-0.394
same,glycan array binding signal (z-score),[15],-0.394
same,glycan array binding signal (z-score),[16],0.141
same,glycan array binding signal (z-score),[17],-0.582
same,glycan array binding signal (z-score),[18],-0.219
same,glycan array binding signal (z-score),[19],-0.312
same,glycan array binding signal (z-score),[20],0.292
same,glycan array binding signal (z-score),[21],19.2
same,glycan array binding signal (z-score),[22],-0.348
same,glycan array binding signal (z-score),[23],-0.179
same,glycan array binding signal (z-score),Fuc(a1-3)GlcNAc,0.023
same,glycan array binding signal (z-score),[24],-0.323
same,glycan array binding signal (z-score),[25],-0.271
same,glycan array binding signal (z-score),[26],-0.452
same,glycan array binding signal (z-score),[27],0.59
same,glycan array binding signal (z-score),[28],0.875
same,glycan array binding signal (z-score),[29],-0.439
same,glycan array binding signal (z-score),[30],-0.006
same,glycan array binding signal (z-score),[31],-0.363
same,glycan array binding signal (z-score),[32],0.367
same,glycan array binding signal (z-score),[33],0.306
same,glycan array binding signal (z-score),[34],-0.238
same,glycan array binding signal (z-score),[35],-0.043
same,glycan array binding signal (z-score),[36],-0.369
same,glycan array binding signal (z-score),[37],-0.014
